Binding signal data for 172 sequences are collected here from PMC5836133.

Some of the results follow. At the low end of the ranking the order means little.

The subject of the test is T1, GST-NbGlk1(82-244).
T1 sequence: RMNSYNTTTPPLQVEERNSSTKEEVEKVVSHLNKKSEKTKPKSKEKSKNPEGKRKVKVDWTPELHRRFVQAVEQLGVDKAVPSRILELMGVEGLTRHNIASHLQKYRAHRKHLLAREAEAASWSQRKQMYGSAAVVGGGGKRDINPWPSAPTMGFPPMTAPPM
The test can be described thus: protein-binding microarray.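 Also: rank-based score ranging −0.5 to +0.5 with E above 0.45 taken as significant binding.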 The note with it: NbGlk1 is a Golden2-like transcription factor of Nicotiana benthamiana; high values mean tight binding; most listed sequences are background and not binding sites; double strand, one strand shown.
Turning to AGATATTC, the binding signal worked out at 0.451 E-score.

AAGAACCT: the binding signal is -0.154 E-score.

The sequence AGAAGGTA returned a binding signal of -0.0371 E-score.

With ACCCATTA, the binding signal was 0.0818 E-score.

For the sequence AGACGAAA, the binding signal was determined as 0.03 E-score.

ATTGCAAC registered a binding signal of 0.0997 E-score.

Consider ATACTACG, for which the binding signal was 0.0656 E-score.

AATGCCGG had a binding signal of -0.0722 E-score.

Regarding AGACTTTC, the binding signal is -0.181 E-score.

The sequence ATGCCGGG registered a binding signal of -0.115 E-score.

With ACCAGTTG, the binding signal was -0.0523 E-score.

ACGGGCGA registered a binding signal of 0.0516 E-score.

In turn, AAAGCCAC came in with a binding signal of -0.186 E-score.

The sequence AGGCCCGA registered a binding signal of -0.205 E-score.

Regarding CACCCGGG, the binding signal is -0.277 E-score.

In turn, AGTACTCG yielded a binding signal of -0.182 E-score.

AACTTTCT returned a binding signal of -0.101 E-score.

Sequence AATGTGGC had a binding signal of -0.0671 E-score.

Regarding ACGCCTAT, the binding signal was -0.162 E-score.

In turn, AAGGTTAC registered a binding signal of -0.158 E-score.

With CACAAAGA, the binding signal was found to be 0.111 E-score.

For the sequence AGCAATCG, the binding signal worked out at 0.308 E-score.

Regarding ATATATAG, the binding signal was determined as 0.145 E-score.

Regarding AATGGTCA, the binding signal was -0.0407 E-score.

Consider AAGTTGTA, for which the binding signal was 0.0647 E-score.

In the case of AGAACTGG, the binding signal is -0.021 E-score.

In turn, ACCCATGG came in with a binding signal of -0.217 E-score.

For ACCGCTAA, the binding signal was -0.0946 E-score.

With ACCACGGA, the binding signal is 0.00649 E-score.

As to AGAACAAA, the binding signal was determined as 0.0155 E-score.

In turn, ACGTGGGA returned a binding signal of -0.00296 E-score.

The sequence AACAGATC came in with a binding signal of 0.305 E-score.

Consider AGGTCACT, for which the binding signal is -0.15 E-score.

In turn, ATAATGGG came in with a binding signal of 0.0867 E-score.

Regarding ATGTTATA, the binding signal turned out to be 0.103 E-score.

Regarding ATAGAAAT, the binding signal is 0.249 E-score.

ACTGTCTC: the binding signal was -0.222 E-score.

Sequence CACATCAA showed a binding signal of -0.0693 E-score.

Regarding AGCTAAGG, the binding signal is -0.25 E-score.

On to ACTAGCAC, for which the binding signal is -0.164 E-score.

For the sequence ATCTACTC, the binding signal stood at 0.228 E-score.

AAAAAGAT gave a binding signal of 0.248 E-score.

As for ATAACTGC, the binding signal amounted to 0.0652 E-score.

The sequence ATCCAGAA registered a binding signal of 0.288 E-score.

ATTCACAA displayed a binding signal of 0.218 E-score.

Consider ATGGTAGC, for which the binding signal is -0.0955 E-score.

Take CACTGAGG: the binding signal is -0.207 E-score.

Consider AATGCCTG, for which the binding signal is -0.108 E-score.

With AGGCGGAC, the binding signal was -0.191 E-score.

For AAACTTAC, the binding signal is 0.0331 E-score.

In turn, AACTGTTC displayed a binding signal of -0.114 E-score.

In turn, ATCATTGC showed a binding signal of 0.109 E-score.

The sequence AGGGTTAG had a binding signal of -0.196 E-score.

AAGAGACT returned a binding signal of -0.158 E-score.

As to AGAGTCCA, the binding signal was -0.219 E-score.

For ACTACCTA, the binding signal is -0.0397 E-score.

Turning to AACTGCCA, the binding signal is -0.199 E-score.

The sequence ATTGGTCC showed a binding signal of -0.173 E-score.

ATCCCAAG came in with a binding signal of 0.206 E-score.

On to AATACACC, for which the binding signal was 0.0683 E-score.

Take ATATTGGA: the binding signal was determined as 0.241 E-score.

For the sequence AATGGCCG, the binding signal is -0.194 E-score.

Turning to ACGAACGT, the binding signal is -0.196 E-score.

ATCCATAC yielded a binding signal of 0.188 E-score.

The sequence ATGAAGCG had a binding signal of -0.0903 E-score.

For the sequence ATACACAG, the binding signal was 0.0651 E-score.

As to AAAATCAG, the binding signal stood at 0.381 E-score.

On to AGAGGAGG, for which the binding signal is -0.247 E-score.

On to ACCTGCGC, for which the binding signal is -0.155 E-score.

The sequence AGTCCAAC came in with a binding signal of -0.221 E-score.

For the sequence ATACTGCA, the binding signal stood at 0.18 E-score.

As to ACTAAGTG, the binding signal was -0.129 E-score.

In turn, ATGACAGC had a binding signal of -0.0999 E-score.

In turn, ACGCCTTA had a binding signal of -0.0918 E-score.

As to ACGGTTCA, the binding signal was -0.129 E-score.

With ATGTGCCG, the binding signal is -0.00783 E-score.

ACGCCTAA came in with a binding signal of -0.0313 E-score.

With ATACTCCG, the binding signal was 0.101 E-score.

Take ACATGTCT: the binding signal is -0.128 E-score.

As to CAACGTGA, the binding signal was -0.117 E-score.

AAGAAAGC yielded a binding signal of -0.167 E-score.

Sequence ACGGGGAC displayed a binding signal of -0.279 E-score.

With AGCTGCAC, the binding signal was -0.094 E-score.

ATTCGGAG had a binding signal of 0.135 E-score.

Consider CAATATGC, for which the binding signal was -0.0381 E-score.

The sequence ATCCGCAC yielded a binding signal of 0.284 E-score.

AAATTAAG yielded a binding signal of 0.148 E-score.

AAAGAATA came in with a binding signal of 0.113 E-score.

On to AATACAAT, for which the binding signal turned out to be 0.174 E-score.

The sequence ATGCTTTG yielded a binding signal of -0.0436 E-score.

CACTCTCG had a binding signal of -0.26 E-score.

ATATGCTC registered a binding signal of 0.187 E-score.

In the case of AGGGAGGG, the binding signal was -0.137 E-score.

As to ACAACCGG, the binding signal is -0.108 E-score.

In turn, CAAATACG yielded a binding signal of 0.225 E-score.

AAGCTCGC returned a binding signal of -0.256 E-score.

ACCCTTTA displayed a binding signal of -0.0786 E-score.

Regarding ACCTGGGG, the binding signal was -0.319 E-score.

Sequence AAGGTGTC yielded a binding signal of -0.135 E-score.

Consider AATAGGGG, for which the binding signal was -0.0509 E-score.

Sequence ATCCGCTC showed a binding signal of 0.271 E-score.

In the case of ATGATGGG, the binding signal is -0.0669 E-score.

In turn, AGAACAGC gave a binding signal of -0.15 E-score.

As for ATGACCAG, the binding signal is -0.132 E-score.

Consider ATAGGCTC, for which the binding signal is -0.0441 E-score.

AACCTCAA showed a binding signal of -0.0373 E-score.

Sequence ACCGGACA displayed a binding signal of -0.113 E-score.

The sequence ACAGAGTC displayed a binding signal of -0.255 E-score.

In turn, AACCCCTA came in with a binding signal of -0.159 E-score.

As to ATTTCATG, the binding signal came to 0.332 E-score.

On to ACAGGGCC, for which the binding signal was -0.275 E-score.

In turn, AAGATGAA returned a binding signal of -0.0306 E-score.

Take AGAGAGAG: the binding signal was -0.152 E-score.

AGACACAC came in with a binding signal of -0.0982 E-score.

Take AGTGGCAC: the binding signal is -0.268 E-score.

In the case of ACAACCAG, the binding signal was -0.0806 E-score.

Turning to ATGCAAGG, the binding signal was found to be 0.013 E-score.

On to AATTTTAA, for which the binding signal is 0.174 E-score.

Consider ACGTACAC, for which the binding signal was -0.0052 E-score.

On to CAAGTGGG, for which the binding signal was -0.177 E-score.

Sequence ACCCGGTC returned a binding signal of -0.273 E-score.

Take ATGCCCAC: the binding signal is -0.00205 E-score.

On to ACTGGATA, for which the binding signal was 0.289 E-score.

AGAACATA returned a binding signal of 0.0683 E-score.

On to ACTCGATC, for which the binding signal turned out to be 0.00759 E-score.

Turning to AACCAAAT, the binding signal is 0.193 E-score.

AACCGAGG gave a binding signal of -0.219 E-score.

In turn, CACGTAGG had a binding signal of -0.12 E-score.

ATCGCAAT: the binding signal stood at 0.397 E-score.

Turning to AATGTAGA, the binding signal came out at 0.12 E-score.

Consider AGCACAGA, for which the binding signal was -0.102 E-score.

CAAGGAGG showed a binding signal of -0.257 E-score.

Take ATAGCTAT: the binding signal was -0.0546 E-score.

ACCGCCCT yielded a binding signal of -0.149 E-score.

Turning to AGCCTGAT, the binding signal is -0.06 E-score.

AACGGTGT returned a binding signal of -0.0446 E-score.

In turn, ATGCCAGC registered a binding signal of -0.0804 E-score.

The sequence CAGCGCTC showed a binding signal of -0.068 E-score.

Regarding ACTATATG, the binding signal was -0.114 E-score.

The sequence ATTACTCC returned a binding signal of 0.154 E-score.

AGTGGGAC came in with a binding signal of -0.126 E-score.

In turn, CAATTATC had a binding signal of 0.161 E-score.

With AAGTTAAA, the binding signal came out at 0.132 E-score.

Regarding CACTAGAC, the binding signal is -0.0522 E-score.

As to ACCAAAGT, the binding signal is -0.109 E-score.

ACCATATG showed a binding signal of -0.0119 E-score.

With ATACATAA, the binding signal came to 0.124 E-score.

AACTTGAA gave a binding signal of 0.155 E-score.

The sequence ACATTGGA yielded a binding signal of 0.0946 E-score.

In the case of ACTTTTGG, the binding signal is -0.204 E-score.

Consider AGCCTTTC, for which the binding signal was -0.156 E-score.

CACCTCTC returned a binding signal of -0.143 E-score.

Take AAATCCGC: the binding signal is 0.432 E-score.

In the case of ACTGTGTG, the binding signal was found to be 0.00957 E-score.

For CAAGAACC, the binding signal is -0.19 E-score.

In turn, AGTACCTA returned a binding signal of -0.107 E-score.

ACAAGGTG: the binding signal was -0.177 E-score.

For CAAGATGC, the binding signal was -0.175 E-score.

Consider AAGACACT, for which the binding signal is -0.22 E-score.

The sequence AAGTGTGC showed a binding signal of -0.148 E-score.

Take ACTGCTGA: the binding signal was -0.0346 E-score.

With ATTCCAAT, the binding signal turned out to be 0.166 E-score.

On to ACGAGGCC, for which the binding signal was -0.201 E-score.

As to AGTAAAGC, the binding signal was -0.118 E-score.

With ACGCATCA, the binding signal came to 0.028 E-score.

In turn, AGAAGGAG had a binding signal of -0.256 E-score.

Sequence AAACAGAT displayed a binding signal of 0.229 E-score.

With AAAGTGTT, the binding signal is 0.0304 E-score.

As for ACTCTCGG, the binding signal was -0.104 E-score.

With AGTGCTAG, the binding signal is -0.111 E-score.

AAGAAGTA registered a binding signal of 0.0303 E-score.

Sequence ATTGCCAC showed a binding signal of 0.0927 E-score.
